The record followed here is the antibiotic and cytotoxicity screens of Wong et al. (2023).

The test system of one test is HSkMC. The experiment in a line: cytotoxicity call (relative viability < 0.9). The note with it: 10 µM.
The subject of another test is HepG2. Nature of the test: cytotoxicity call (relative viability < 0.9). The note with it: 10 µM.
The test system of another test is S. aureus RN4220. Nature of the test: growth inhibition call (relative growth <= 0.2). The note with it: 50 µM.

Some of the results follow.

In the case of `C[C@@H]1CN([C@H](C)CO)C(=O)c2cc(Br)cnc2O[C@H]1CN(C)C(=O)Nc1ccc2c(c1)OCO2`, the cytotoxicity call in the test with HSkMC and in the test on HepG2 was “inactive” in each case. Also, in the test on S. aureus RN4220, the growth inhibition call was “inactive”.

Turning to `C[C@H]1CCCCO[C@@H](CN(C)C)[C@@H](C)CN([C@@H](C)CO)C(=O)c2cc(NC(=O)Nc3cccc4ccccc34)ccc2O1`, the cytotoxicity call in the test on HSkMC and in the test on HepG2 was “inactive” in each case. Moreover, the growth inhibition call with S. aureus RN4220 was “inactive”.

`C[C@@H]1CCCCO[C@H](CN(C)S(C)(=O)=O)[C@@H](C)CN([C@@H](C)CO)C(=O)c2cc(NS(=O)(=O)c3ccccc3)ccc2O1`: the cytotoxicity call in the test on HSkMC and with HepG2 was “inactive” throughout. Further, the growth inhibition call in the test with S. aureus RN4220 is “inactive”.

For the compound `CCS(=O)(=O)N1CC[C@]2(CC1)CN([C@H](CO)c1c2c2ccc(cc2n1C)OC)C(=O)CN1CCOCC1`, the cytotoxicity call with HSkMC and with HepG2 was “inactive” throughout. Moreover, in the test on S. aureus RN4220, the growth inhibition call is “inactive”.

Regarding `CC1=NCCN1`, the cytotoxicity call with HSkMC and in the test on HepG2 was “inactive” each time. Further, the growth inhibition call with S. aureus RN4220 is “inactive”.

Turning to `C[C@H](CO)N1C[C@H](C)[C@H](CN(C)C(=O)Nc2ccccc2)Oc2ccc(NC(=O)Nc3cccc4ccccc34)cc2CC1=O`, the cytotoxicity call with HSkMC and with HepG2 was “inactive” in each case. For the same compound, the growth inhibition call with S. aureus RN4220 is “inactive”.

Regarding `C[C@@H]1CN([C@H](C)CO)C(=O)c2c(c3ccccc3n2C)-c2ccccc2CO[C@@H]1CN(C)C(=O)Nc1cccc(C(F)(F)F)c1`, the cytotoxicity call in the test on HSkMC is “inactive”. The cytotoxicity call in the test on HepG2 was “active”. The growth inhibition call with S. aureus RN4220 is “inactive”.

`O=C(Nc1ccccc1)c1ccccc1O`: the cytotoxicity call in the test on HSkMC was “inactive”. For the same compound, the cytotoxicity call in the test with HepG2 is “active”. In addition, the growth inhibition call in the test with S. aureus RN4220 was “active”.

For the compound `N=C(N)NCCCCNC(=N)N`, the cytotoxicity call with HSkMC was “inactive”. For the same compound, the cytotoxicity call in the test with HepG2 was “active”. The growth inhibition call in the test on S. aureus RN4220 is “inactive”.

`CN1CCN(C(=O)C[C@@H]2CC[C@H]3[C@@H](COC[C@@H](O)CN3C(=O)Nc3cc(Cl)cc(Cl)c3)O2)CC1`: the cytotoxicity call in the test with HSkMC and with HepG2 was “inactive” in each case. Also, the growth inhibition call in the test on S. aureus RN4220 was “inactive”.

On to `C[C@@H]1CN([C@@H](C)CO)C(=O)c2cc(NC(=O)CCC(F)(F)F)ccc2O[C@@H]1CN(C)Cc1ccc(Cl)c(Cl)c1`, for which the cytotoxicity call in the test on HSkMC and in the test on HepG2 was “inactive” throughout. Further, in the test on S. aureus RN4220, the growth inhibition call is “inactive”.

Turning to `COc1ccc(NC(=O)N(C)C[C@@H]2OCc3cnnn3CCCC(=O)N([C@H](C)CO)C[C@@H]2C)c(OC)c1`, the cytotoxicity call in the test on HSkMC and in the test on HepG2 was “inactive” throughout. The growth inhibition call with S. aureus RN4220 is “inactive”.

As to `Cc1noc(C)c1S(=O)(=O)N(C)C[C@H]1Oc2ccc(NC(=O)Nc3ccc4c(c3)OCO4)cc2CC(=O)N([C@@H](C)CO)C[C@H]1C`, the cytotoxicity call with HSkMC and with HepG2 was “inactive” each time. Besides, the growth inhibition call in the test on S. aureus RN4220 is “inactive”.

Regarding `C[C@H]1CCCCO[C@@H](CN(C)Cc2ccc3c(c2)OCO3)[C@@H](C)CN([C@@H](C)CO)C(=O)c2cc(NC(=O)Cc3ccccc3)ccc2O1`, the cytotoxicity call in the test with HSkMC and in the test on HepG2 was “inactive” in each case. In the test with S. aureus RN4220, the growth inhibition call is “inactive”.

As for `COc1ccc(CN(C)C[C@@H]2OCCCC[C@H](C)Oc3ccc(NS(=O)(=O)c4ccc(Cl)cc4)cc3C(=O)N([C@H](C)CO)C[C@H]2C)cc1`, the cytotoxicity call in the test on HSkMC and with HepG2 was “inactive” in each case. Also, the growth inhibition call in the test on S. aureus RN4220 was “inactive”.

Turning to `CC(C)(C)CC(=O)N1C[C@@H]2c3nc(N4CCOCC4)ncc3CS(=O)(=O)[C@H]2C1`, the cytotoxicity call with HSkMC and in the test on HepG2 was “inactive” each time. For the same compound, the growth inhibition call with S. aureus RN4220 was “inactive”.

On to `CC(C)NC(=O)N(C)C[C@@H]1Oc2ccc(NC(=O)Cc3ccccc3)cc2CC(=O)N([C@H](C)CO)C[C@H]1C`, for which the cytotoxicity call with HSkMC and in the test on HepG2 was “inactive” each time. For the same compound, in the test on S. aureus RN4220, the growth inhibition call was “inactive”.

For the compound `C[C@H](CO)N1C[C@H](C)[C@@H](CN(C)C(=O)NC2CCCCC2)Oc2c(NC(=O)Nc3cccc4ccccc34)cccc2C1=O`, in the test on HSkMC, the cytotoxicity call is “active”. Also, the cytotoxicity call in the test on HepG2 is “inactive”. Besides, the growth inhibition call with S. aureus RN4220 was “inactive”.

Consider `C[C@@H]1CN([C@H](C)CO)C(=O)c2cccc(NC(=O)C3CC3)c2O[C@@H]1CN(C)C(=O)Nc1ccc2c(c1)OCO2`, for which the cytotoxicity call in the test with HSkMC and in the test with HepG2 was “inactive” each time. The growth inhibition call in the test with S. aureus RN4220 was “inactive”.

As to `O=C(C[C@@H]1C[C@@H]2c3cc(NC(=O)Nc4ccc(C(F)(F)F)cc4)ccc3O[C@@H]2[C@H](CO)O1)NC1CCCCC1`, the cytotoxicity call in the test on HSkMC is “inactive”. Further, the cytotoxicity call with HepG2 is “active”. In the test with S. aureus RN4220, the growth inhibition call was “inactive”.

Turning to `COc1ccc(NC(=O)Nc2ccc3c(c2)C(=O)N([C@H](C)CO)C[C@@H](C)[C@H](CN(C)Cc2ccc(-c4ccccc4)cc2)O3)cc1`, in the test on HSkMC, the cytotoxicity call is “inactive”. In addition, in the test with HepG2, the cytotoxicity call was “active”. Moreover, the growth inhibition call in the test with S. aureus RN4220 is “inactive”.

As to `COc1ccc(NC(=O)N(C)C[C@H]2OCc3ccccc3-c3c(n(C)c4ccccc34)C(=O)N([C@H](C)CO)C[C@@H]2C)c(OC)c1`, the cytotoxicity call in the test on HSkMC and with HepG2 was “inactive” throughout. For the same compound, in the test on S. aureus RN4220, the growth inhibition call is “inactive”.

In the case of `Cc1noc(C)c1NC(=O)N(C)C[C@@H]1OCCCC[C@@H](C)Oc2ccc(NS(=O)(=O)c3ccc(Cl)cc3)cc2C(=O)N([C@H](C)CO)C[C@@H]1C`, the cytotoxicity call in the test with HSkMC and in the test on HepG2 was “inactive” each time. For the same compound, in the test with S. aureus RN4220, the growth inhibition call was “inactive”.

Regarding `COCC#Cc1ccc2c(c1)O[C@H](CN(C)Cc1ccc(F)cc1)[C@@H](C)CN([C@H](C)CO)S2(=O)=O`, the cytotoxicity call in the test with HSkMC and in the test with HepG2 was “inactive” each time. The growth inhibition call in the test on S. aureus RN4220 is “inactive”.

On to `COc1ccc(S(=O)(=O)N(C)C[C@H]2Oc3ccc(NC(=O)Nc4c(C)noc4C)cc3C(=O)N([C@H](C)CO)C[C@H]2C)cc1`, for which the cytotoxicity call with HSkMC and in the test with HepG2 was “inactive” in each case. The growth inhibition call in the test with S. aureus RN4220 was “inactive”.

As to `Cc1ccc(S(=O)(=O)N2C[C@H](O)COC[C@@H]3O[C@@H](CC(=O)NCc4ccc(Cl)c(Cl)c4)CC[C@H]32)cc1`, the cytotoxicity call in the test with HSkMC and in the test with HepG2 was “inactive” in each case. Further, the growth inhibition call with S. aureus RN4220 was “inactive”.

Consider `COc1ccc(-c2cn(CCNC(=O)[C@H](Cc3ccccc3)NS(=O)(=O)c3ccc(C)cc3)nn2)cc1OC`, for which the cytotoxicity call in the test with HSkMC and with HepG2 was “inactive” throughout. The growth inhibition call in the test on S. aureus RN4220 was “inactive”.

Regarding `CC(=O)c1c(O)c(C)c(O)c2c1OC1=CC(=O)C(C(C)=O)C(=O)C12C` (stereo not given), the cytotoxicity call with HSkMC and in the test on HepG2 was “inactive” each time. For the same compound, in the test with S. aureus RN4220, the growth inhibition call was “active”.

For `Cc1noc(C)c1S(=O)(=O)N(C)C[C@@H]1OCCCC[C@@H](C)Oc2ccc(NC(=O)Nc3ccc(F)cc3)cc2C(=O)N([C@@H](C)CO)C[C@@H]1C`, the cytotoxicity call in the test on HSkMC and in the test on HepG2 was “inactive” each time. The growth inhibition call with S. aureus RN4220 is “inactive”.

Turning to `C[C@H](CO)N1C[C@H](C)[C@@H](CN(C)S(=O)(=O)c2cn(C)cn2)Oc2cc(C3=CCCC3)ccc2S1(=O)=O`, the cytotoxicity call in the test on HSkMC and with HepG2 was “inactive” each time. Further, the growth inhibition call with S. aureus RN4220 is “inactive”.

As to `C[C@@H]1CN([C@H](C)CO)C(=O)Cc2cc(NC(=O)C3CC3)ccc2O[C@H]1CN(C)S(=O)(=O)c1cn(C)cn1`, the cytotoxicity call with HSkMC and in the test on HepG2 was “inactive” in each case. Besides, the growth inhibition call in the test with S. aureus RN4220 is “inactive”.

Consider `CN(C)CC(=O)N[C@H]1CC[C@@H](CCn2cc(CN(C)C)nn2)O[C@H]1CO`, for which the cytotoxicity call with HSkMC and with HepG2 was “inactive” throughout. In addition, the growth inhibition call in the test on S. aureus RN4220 is “inactive”.

With `C[C@H]1CN([C@@H](C)CO)C(=O)c2cc(NC(=O)C3CCCCC3)ccc2O[C@@H]1CN(C)C(=O)Nc1cccc2ccccc12`, the cytotoxicity call in the test on HSkMC (human skeletal muscle cells) and in the test with HepG2 was “inactive” throughout. Further, the growth inhibition call in the test with S. aureus RN4220 is “inactive”.

As to `C[C@@H]1CN([C@@H](C)CO)C(=O)Cc2cc(NC(=O)Nc3cccc4ccccc34)ccc2O[C@H]1CN(C)Cc1ccncc1`, the cytotoxicity call with HSkMC and in the test on HepG2 was “inactive” each time. In the test on S. aureus RN4220, the growth inhibition call was “inactive”.

For `COC[C@H]1CN(C(=O)CS(C)(=O)=O)Cc2nnn(CC3CC3)c21`, the cytotoxicity call with HSkMC and in the test with HepG2 was “inactive” in each case. For the same compound, the growth inhibition call with S. aureus RN4220 was “inactive”.
